Measurements taken from patent publication US20250043017A1.

Assays:
[1] = molecular target: human PD-L1 on cells (human) (UniProt Q9NZQ7); experiment: flow cytometry, OVCAR3 cells (low endogenous PD-L1)
[2] = molecular target: human PD-L1 on cells (human) (UniProt Q9NZQ7); experiment: flow cytometry, OVCAR3/hPD-L1 cells
[3] = molecular target: human PD-L1 on cells (human) (UniProt Q9NZQ7); experiment: cell-based or functional assay
[4] = molecular target: human PD-L1 on cells (human) (UniProt Q9NZQ7); experiment: flow cytometry, Jurkat/NFkB-Luc/h41BB cells (potential low endogenous PD-L1)

Chain of UniProt Q9NZQ7 (Q9NZQ7 19-290): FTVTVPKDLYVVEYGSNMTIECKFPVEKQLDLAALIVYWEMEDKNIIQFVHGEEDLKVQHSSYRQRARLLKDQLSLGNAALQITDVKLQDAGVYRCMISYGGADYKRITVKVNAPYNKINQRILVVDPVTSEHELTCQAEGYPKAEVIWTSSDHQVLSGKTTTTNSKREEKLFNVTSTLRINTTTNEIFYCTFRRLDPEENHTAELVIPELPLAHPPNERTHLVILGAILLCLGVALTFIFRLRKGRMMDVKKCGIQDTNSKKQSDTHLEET

Fold change (max MFI over secondary antibody alone) [1]: 7.4 fold
Max [gMFI] [1]: 17000 gMFI
EC50 [2]: 3.4 nM
Fold change (max MFI over secondary antibody alone) [2]: 2410 fold
Max [gMFI] [2]: 9.1e+06 gMFI
AP-1 luciferase EC50, Jurkat/AP1-luc/hPD1 + WSU-DLCL2/hPD-L1 + CD20xCD3 [3]: 0.874 nM
AP-1 luciferase MAX (RLU), Jurkat/AP1-luc/hPD1 + WSU-DLCL2/hPD-L1 + CD20xCD3 [3]: 1.1e+06 RLU
Fold change (max MFI over secondary antibody alone) [4]: 8.4 fold
Max [gMFI] [4]: 19000 gMFI
B1: Control 2 (bispecific antibody, part only; not given: unrelated arm VH; constant regions, V domains shown, not shown: another chain or arm of the molecule; a dimerising Fc or GST; small tags and cut ends)
VH: EVQLVESGGGLVQPGRSLRLSCAASGFTFDDYALHWVRQAPGKGLEWVSGISWTGGTIDYADSVKGRFTISRDNAKNSLYLQMSSLRTEDTAIYYCTRDIRGNWKYGGWFDPWGQGTLVTVSS
VL: [sequence of about 100 residues not given]
